Assay results published in the supplement of paper PMC9135407.
“And” between values parts separate entries of the source, which are not always exact repeats. Equal values may be shown once. Where a name gives a salt, the structure may show the parent alone. Out of some 5,800 compounds screened, about 620 (11%) showed activity.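 Rule for the calls: active = score above a cut-off or among the top three wells of a plate; in these data no inactive exceeds 0.85.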 This is a selection; strong and weak results do not stand in their true shares.

Test system: primary human hepatic stellate cells (donor 1)
Experiment: scaled lipid accumulation score (0 = DMSO-like, 1 = nortriptyline-like); higher = stronger HSC inactivation (lipid re-accumulation), active = hit call of the paper
Conditions: 48 h
[1] = library stock concentration: 3.33 mM
[2] = library stock concentration: 10 mM
[3] = library stock concentration: 80 uM
[4] = library stock concentration: 400 uM
[5] = library stock concentration: 2 mM
[6] = library stock concentration: 1 mM
[7] = library stock concentration: 8.6 mM
[8] = library stock concentration: 6.4 mM

SMILES: Cc1cc([N+](=O)[O-])ccc1NS(=O)(=O)c1cc(Cl)ccc1Cl
- scaled lipid accumulation score [1]: inactive: ≤ -0.009
- scaled lipid accumulation score [2]: inactive: 0.147

SMILES: COc1ccc(COc2ccc(Cc3cnc(N)nc3N)cc2OC)cc1
- scaled lipid accumulation score [3]: inactive: ≤ 0
- scaled lipid accumulation score [4]: inactive: ≤ 0
- scaled lipid accumulation score [5]: inactive: 0.105
- scaled lipid accumulation score [1]: inactive: 0.252
- scaled lipid accumulation score [2]: inactive: 0.641 and inactive: ≤ 0

SMILES: COc1ccc(COc2ccc(Cc3cnc(N)nc3N)cc2OC)cc1 [cFMS Receptor Tyrosine Kinase Inhibitor]
- scaled lipid accumulation score [1]: inactive: ≤ 0

SMILES: COCc1c(C(C)C)nc(C(C)C)c(/C=C/[C@@H](O)C[C@@H](O)CC(=O)O)c1-c1ccc(F)cc1
- scaled lipid accumulation score [2]: inactive: 0.271

SMILES: COCc1c(C(C)C)nc(C(C)C)c(/C=C/[C@@H](O)C[C@@H](O)CC(=O)O)c1-c1ccc(F)cc1 [Cerivastatin]
- scaled lipid accumulation score (library stock concentration: 4.4 mM): inactive: 0.228

SMILES: COC(=O)C1=C(C)NC(C)=C(C(=O)OC)C1c1cccc(NC(=O)NCCCN2CCC(c3cccc(OC)c3)CC2)c1
- scaled lipid accumulation score [2]: inactive: 0.68

SMILES: O=C(O)CCNc1cc(N2CCc3ccccc3CC2)nc(-c2ccccn2)n1
- scaled lipid accumulation score [3]: inactive: ≤ 0
- scaled lipid accumulation score [4]: inactive: ≤ 0
- scaled lipid accumulation score [5]: inactive: ≤ 0
- scaled lipid accumulation score [2]: inactive: ≤ 0

SMILES: CSC(N)=NCCC[C@@H](N)C(=O)O [S-methyl-L-Thiocitrulline (hydrochloride)]
- scaled lipid accumulation score [6]: inactive: ≤ 0

SMILES: C=CC[C@@H]1/C=C(\C)C[C@H](C)C[C@H](OC)[C@H]2O[C@@](O)(C(=O)C(=O)N3CCCC[C@H]3C(=O)O[C@H](/C(C)=C/[C@@H]3CC[C@@H](O)[C@H](OC)C3)[C@H](C)[C@@H](O)CC1=O)[C@H](C)C[C@@H]2OC
- scaled lipid accumulation score [6]: inactive: 0.047
- scaled lipid accumulation score (library stock concentration: 6.2 mM): inactive: ≤ -0.012
- scaled lipid accumulation score [2]: inactive: ≤ 0

SMILES: C=CC[C@@H]1/C=C(\C)C[C@H](C)C[C@H](OC)[C@H]2O[C@@](O)(C(=O)C(=O)N3CCCC[C@H]3C(=O)O[C@H](/C(C)=C/[C@@H]3CC[C@@H](O)[C@H](OC)C3)[C@H](C)[C@@H](O)CC1=O)[C@H](C)C[C@@H]2OC [Tacrolimus (FK506)]
- scaled lipid accumulation score [1]: inactive: 0.015
- scaled lipid accumulation score [2]: inactive: 0.062

SMILES: CN(C)Cc1cccc(N=C(c2ccccc2)c2c(O)[nH]c3cc(C(N)=O)ccc23)c1
- scaled lipid accumulation score [3]: inactive: ≤ -0.001
- scaled lipid accumulation score [4]: inactive: ≤ -0.001
- scaled lipid accumulation score [5]: inactive: ≤ -0.001
- scaled lipid accumulation score [1]: inactive: ≤ 0
- scaled lipid accumulation score [2]: inactive: 0.659 and inactive: 0.686

SMILES: NC[C@H]1O[C@H](O[C@H]2[C@H](O[C@@H]3O[C@H](CO)[C@@H](O)[C@H]3O)[C@@H](O)[C@H](N)C[C@@H]2N)[C@H](N)[C@@H](O)[C@@H]1O [Ribostamycin sulfate]
- scaled lipid accumulation score [2]: inactive: ≤ -0.027

SMILES: NC[C@H]1O[C@H](O[C@H]2[C@H](O[C@@H]3O[C@H](CO)[C@@H](O)[C@H]3O)[C@@H](O)[C@H](N)C[C@@H]2N)[C@H](N)[C@@H](O)[C@@H]1O [Ribostamycin sulfate salt]
- scaled lipid accumulation score: inactive: ≤ 0

SMILES: O=Nc1c(-c2c(O)[nH]c3ccccc23)[nH]c2ccccc12 [Indirubin-3'-monoxime]
- scaled lipid accumulation score [1]: inactive: 0.086
- scaled lipid accumulation score (library stock concentration: 18 mM): inactive: 0.142

SMILES: O=Nc1c(-c2c(O)[nH]c3ccccc23)[nH]c2ccccc12 [Indirubin-3'-oxime]
- scaled lipid accumulation score [2]: inactive: 0.592 and inactive: 0.041

SMILES: Cc1ccc(C(=O)c2cc(O)c(O)c([N+](=O)[O-])c2)cc1 [Tolcapone]
- scaled lipid accumulation score [1]: inactive: ≤ 0
- scaled lipid accumulation score (library stock concentration: 7.3 mM): inactive: ≤ -0.006
- scaled lipid accumulation score [2]: inactive: 0.036

SMILES: COc1ccc2[nH]cc(CCNC(C)=O)c2c1 [Melatonin]
- scaled lipid accumulation score: inactive: ≤ 0
- scaled lipid accumulation score [1]: inactive: ≤ 0
- scaled lipid accumulation score [7]: inactive: ≤ -0.006
- scaled lipid accumulation score [2]: inactive: ≤ 0 and inactive: ≤ -0.055 and inactive: ≤ -0.001

SMILES: O=C([O-])c1ccccc1O.[Na+] [Sodium salicylate]
- scaled lipid accumulation score [1]: inactive: ≤ 0
- scaled lipid accumulation score [2]: inactive: ≤ -0.001 and inactive: ≤ 0

SMILES: CN1C2CCCC1CC(NC(=O)c1nn(C)c3ccccc13)C2 (centres undefined) [Granisetron]
- scaled lipid accumulation score [8]: inactive: ≤ -0.006

SMILES: CN1C2CCCC1CC(NC(=O)c1nn(C)c3ccccc13)C2 (centres undefined) [Granisetron hydrochloride]
- scaled lipid accumulation score [2]: inactive: 0.034

SMILES: CN1C2CCCC1CC(NC(=O)c1nn(C)c3ccccc13)C2 (centres undefined)
- scaled lipid accumulation score [2]: inactive: ≤ 0

SMILES: COc1cc2c(Oc3ccc4[nH]c(C)cc4c3F)ncnc2cc1OCCCN1CCCC1 [Cediranib]
- scaled lipid accumulation score [5]: active: 1.06

SMILES: CC(C)N1CCN(c2ccc(OCC3COC(Cn4cncn4)(c4ccc(Cl)cc4Cl)O3)cc2)CC1 (centres undefined) [Terconazole]
- scaled lipid accumulation score: inactive: 0.168

SMILES: Clc1ccc2c(c1)N=C(N1CCNCC1)c1ccccc1N2 [N-Desmethylclozapine]
- scaled lipid accumulation score [2]: active: 0.941

SMILES: O=C(NCCNCC(O)COc1ccc(O)cc1)N1CCOCC1 (centres undefined) [Xamoterol hemifumarate]
- scaled lipid accumulation score: inactive: ≤ 0
- scaled lipid accumulation score (library stock concentration: 5.9 mM): inactive: ≤ -0.006
- scaled lipid accumulation score [2]: inactive: ≤ 0

SMILES: N=C(N)c1ccccc1 [Benzamidine hydrochloride]
- scaled lipid accumulation score [2]: inactive: 0.009

SMILES: CCN(Cc1ccncc1)C(=O)C(CO)c1ccccc1 (centres undefined) [Tropicamide]
- scaled lipid accumulation score: inactive: ≤ 0
- scaled lipid accumulation score [1]: inactive: ≤ 0
- scaled lipid accumulation score (library stock concentration: 7 mM): inactive: ≤ -0.006 and inactive: ≤ 0
- scaled lipid accumulation score [2]: inactive: ≤ 0 and inactive: 0.018

SMILES: Cc1ncc([N+](=O)[O-])n1CCO
- scaled lipid accumulation score [2]: inactive: ≤ 0

SMILES: Cc1ncc([N+](=O)[O-])n1CCO [Metronidazole]
- scaled lipid accumulation score: inactive: ≤ 0
- scaled lipid accumulation score [1]: inactive: ≤ 0
- scaled lipid accumulation score [2]: inactive: ≤ 0

SMILES: CCN(CC)CC#CCOC(=O)C(O)(c1ccccc1)C1CCCCC1 (centres undefined) [Oxybutynin chloride]
- scaled lipid accumulation score: inactive: 0.397
- scaled lipid accumulation score [1]: inactive: 0.234
- scaled lipid accumulation score (library stock concentration: 5.1 mM): inactive: 0.317
- scaled lipid accumulation score [2]: inactive: 0.48

SMILES: OC(CCN1CCCCC1)(c1ccccc1)C1CC2C=CC1C2 (centres undefined) [Biperiden HCl]
- scaled lipid accumulation score [1]: inactive: ≤ 0
- scaled lipid accumulation score [2]: inactive: 0.114

SMILES: OC(CCN1CCCCC1)(c1ccccc1)C1CC2C=CC1C2 (centres undefined) [Biperiden]
- scaled lipid accumulation score [8]: inactive: 0.408

SMILES: OC(CCN1CCCCC1)(c1ccccc1)C1CC2C=CC1C2 (centres undefined) [Biperiden hydrochloride]
- scaled lipid accumulation score: inactive: 0.546
- scaled lipid accumulation score [2]: inactive: 0.783

SMILES: CC(=O)O/N=C1\C(=O)N(Cc2cc(Cl)ccc2Cl)c2ccc(Cl)cc21
- scaled lipid accumulation score [1]: inactive: ≤ -0.009
- scaled lipid accumulation score [2]: inactive: ≤ 0

SMILES: C#CCN(C)Cc1ccccc1 [Pargyline hydrochloride]
- scaled lipid accumulation score: inactive: ≤ 0
- scaled lipid accumulation score [2]: inactive: ≤ 0

SMILES: C#CCN(C)Cc1ccccc1 [Pargyline (hydrochloride)]
- scaled lipid accumulation score [6]: inactive: 0.018

SMILES: O=c1[nH]c2ccccc2c2ccccc12 [6(5H)-Phenanthridinone]
- scaled lipid accumulation score [2]: inactive: ≤ 0
- scaled lipid accumulation score (library stock concentration: 25.6 mM): inactive: 0.055

SMILES: C=CC(=O)Nc1cc(Nc2nccc(-c3cn(C)c4ccccc34)n2)c(OC)cc1N(C)CCN(C)C
- scaled lipid accumulation score [5]: active: 1.01

SMILES: CCCCCC(=O)/C=C/[C@@H]1[C@@H](C/C=C\CCCC(=O)O)[C@@H](O)C[C@H]1O [15-keto Prostaglandin F2.alpha.]
- scaled lipid accumulation score [6]: inactive: ≤ 0

SMILES: CN(C)c1ccc(C(=O)NCCCCCCC(=O)NO)cc1
- scaled lipid accumulation score [1]: inactive: 0.341
- scaled lipid accumulation score [2]: inactive: 0.617

SMILES: COc1ccc2cc(CCC(C)=O)ccc2c1
- scaled lipid accumulation score [2]: inactive: 0.116

SMILES: COc1ccc2cc(CCC(C)=O)ccc2c1 [Nabumetone]
- scaled lipid accumulation score: inactive: 0.059
- scaled lipid accumulation score [1]: inactive: ≤ 0
- scaled lipid accumulation score (library stock concentration: 8.8 mM): inactive: 0.161 and inactive: ≤ 0
- scaled lipid accumulation score [2]: inactive: 0.05 and inactive: ≤ -0.027

SMILES: Cc1cccc(/C=C/c2ccccc2)n1
- scaled lipid accumulation score [2]: inactive: ≤ 0 and inactive: ≤ -0.006

SMILES: O=C(O)CCC(=O)OC[C@@H](NC(=O)C(Cl)Cl)[C@H](O)c1ccc([N+](=O)[O-])cc1 [Chloramphenicol hemisuccinate]
- scaled lipid accumulation score (library stock concentration: 4.7 mM): inactive: ≤ -0.001
- scaled lipid accumulation score [2]: inactive: ≤ 0

SMILES: CCCCCC(C)N (centres undefined) [Tuaminoheptane sulfate]
- scaled lipid accumulation score (library stock concentration: 9.4 mM): inactive: 0.016
- scaled lipid accumulation score [2]: inactive: ≤ 0

SMILES: C[C@H]1[C@@H](O)O[C@@H]2O[C@@]3(C)CC[C@H]4[C@H](C)CC[C@@H]1[C@@]24OO3 [Dihydroartemisinin (DHA)]
- scaled lipid accumulation score [1]: inactive: ≤ 0
- scaled lipid accumulation score [2]: inactive: 0.019

SMILES: C[C@H]1[C@@H](O)O[C@@H]2O[C@@]3(C)CC[C@H]4[C@H](C)CC[C@@H]1[C@@]24OO3
- scaled lipid accumulation score [2]: inactive: ≤ 0

SMILES: Cc1cc(C)cc(C(=O)N(C)[C@H](Cc2ccc(-c3ccccc3)cc2)C(=O)N[C@@H](Cc2c[nH]c3ccccc23)C(=O)O)c1
- scaled lipid accumulation score [2]: inactive: 0.057

SMILES: COc1ccc(-c2oc3c(CC=C(C)C)c(O[C@@H]4O[C@H](CO)[C@@H](O)[C@H](O)[C@H]4O)cc(O)c3c(=O)c2O[C@@H]2O[C@@H](C)[C@H](O)[C@@H](O)[C@H]2O)cc1
- scaled lipid accumulation score [2]: inactive: ≤ 0

SMILES: COc1ccc(-c2oc3c(CC=C(C)C)c(O[C@@H]4O[C@H](CO)[C@@H](O)[C@H](O)[C@H]4O)cc(O)c3c(=O)c2O[C@@H]2O[C@@H](C)[C@H](O)[C@@H](O)[C@H]2O)cc1 [Icariin]
- scaled lipid accumulation score [1]: inactive: 0.048
- scaled lipid accumulation score [2]: inactive: ≤ 0

SMILES: CCn1cc(C(=O)O)c(=O)c2ccc(C)nc21 [Nalidixic acid]
- scaled lipid accumulation score [1]: inactive: ≤ 0
- scaled lipid accumulation score [7]: inactive: ≤ 0
- scaled lipid accumulation score [2]: inactive: ≤ 0

SMILES: CCn1cc(C(=O)O)c(=O)c2ccc(C)nc21 [Nalidixic acid sodium]
- scaled lipid accumulation score [2]: inactive: ≤ -0.055

SMILES: CCn1cc(C(=O)O)c(=O)c2ccc(C)nc21
- scaled lipid accumulation score [2]: inactive: ≤ 0

SMILES: CCO[C@@H]1OC(=O)C[C@@H]1NC(=O)[C@@H]1CCCN1C(=O)[C@@H](NC(=O)c1ccc(N)c(Cl)c1)C(C)(C)C
- scaled lipid accumulation score [1]: inactive: ≤ 0
- scaled lipid accumulation score [2]: inactive: ≤ 0

SMILES: CCCCCCCC/C=C\CCCCCCCC(=O)OC[C@@H](O)COP(=O)(O)O [1-Oleoyl Lysophosphatidic Acid (sodium salt)]
- scaled lipid accumulation score [6]: inactive: ≤ 0

SMILES: CCCCCCCC/C=C\CCCCCCCC(=O)OC[C@@H](O)COP(=O)(O)O [1-Oleoyl Lysophosphatidic Acid]
- scaled lipid accumulation score [6]: inactive: ≤ 0
